Reference: paper PMC4336329 (PLoS ONE, 2015)
In all, about 310,000 compounds went through this assay and about 14,000 (4.5%) showed an effect of 50% or more. The effect is printed as a negative number. This is one part of the list.

Each molecule was assayed against human ether-à-go-go-related gene (hERG) potassium channel (human, UniProt Q12809) (assay: primary screen, population patch clamp on CHO cells stably expressing hERG).
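Further: peak tail current of the secondary pulse compared with the same well before compound.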

Chain of human ether-à-go-go-related gene (hERG) potassium channel (Q12809 whole entry, looked up): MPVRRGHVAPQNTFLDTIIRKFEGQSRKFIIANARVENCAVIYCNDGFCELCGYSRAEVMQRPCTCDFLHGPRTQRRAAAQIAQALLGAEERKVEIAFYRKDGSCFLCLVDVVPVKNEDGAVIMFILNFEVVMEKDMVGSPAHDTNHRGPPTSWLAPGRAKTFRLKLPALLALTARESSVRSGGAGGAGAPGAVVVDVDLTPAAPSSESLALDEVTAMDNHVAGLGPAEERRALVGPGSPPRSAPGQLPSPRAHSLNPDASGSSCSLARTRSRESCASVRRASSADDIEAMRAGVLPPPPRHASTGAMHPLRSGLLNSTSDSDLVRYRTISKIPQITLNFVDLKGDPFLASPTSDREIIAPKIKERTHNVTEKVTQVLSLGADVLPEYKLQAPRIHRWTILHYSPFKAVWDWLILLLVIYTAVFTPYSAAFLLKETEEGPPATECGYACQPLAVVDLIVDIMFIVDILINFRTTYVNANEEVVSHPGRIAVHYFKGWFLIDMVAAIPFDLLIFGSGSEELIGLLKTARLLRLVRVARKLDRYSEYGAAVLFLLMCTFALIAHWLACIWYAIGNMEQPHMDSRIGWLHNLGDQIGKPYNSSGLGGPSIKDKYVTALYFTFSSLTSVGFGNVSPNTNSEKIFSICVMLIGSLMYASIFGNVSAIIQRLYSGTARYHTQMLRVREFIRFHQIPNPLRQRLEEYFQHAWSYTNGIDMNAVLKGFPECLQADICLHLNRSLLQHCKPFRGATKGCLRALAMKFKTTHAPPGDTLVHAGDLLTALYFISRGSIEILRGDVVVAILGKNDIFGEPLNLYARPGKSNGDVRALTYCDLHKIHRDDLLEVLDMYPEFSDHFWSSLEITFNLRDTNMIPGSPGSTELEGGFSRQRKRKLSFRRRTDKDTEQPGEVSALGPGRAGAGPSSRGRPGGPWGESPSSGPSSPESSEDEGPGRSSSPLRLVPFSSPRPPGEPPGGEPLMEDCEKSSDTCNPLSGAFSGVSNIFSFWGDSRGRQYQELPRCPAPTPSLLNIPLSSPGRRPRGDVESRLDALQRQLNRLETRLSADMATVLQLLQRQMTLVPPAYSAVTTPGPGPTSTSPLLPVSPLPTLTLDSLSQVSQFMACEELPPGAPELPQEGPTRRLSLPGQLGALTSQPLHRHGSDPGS

SMILES	hERG current change (%, negative = inhibition) at 10uM [%]
CCc1c(C)nc(N)nc1N1N=C1SC	0.299
CC(=O)NCCCNS(=O)(=O)c1ccc(C)cc1	10.2
CC(OC(=O)c1ccc([N+](=O)[O-])s1)C(=O)Nc1ncc(Cl)cc1Cl (centres unmarked)	-4.69
COCCNC(=O)C(c1ccc(O)cc1)N(Cc1ccccc1)C(=O)CCC(=O)Nc1ccccn1 (centres unmarked)	-17.9
COc1ccc(NC(=O)c2ccc3c(c2)NC(=O)CO3)cc1OC	16.5
COc1ccc(CNC(=O)c2ccc(Br)cc2)cc1	-3.83
Cc1ccc(NC(=S)N2CCN(c3nccc(C(F)(F)F)n3)CC2)c(C)c1	-10.3
CCCc1nc2cc(Cl)c([N+](=O)[O-])cc2o1	2.82
NC(=O)COC(=O)/C=C/c1ccc2ccccc2n1	19
CCN(CC)CCN=Cc1c(O)n(C2CCCCCC2)c(=O)[nH]c1=O	-32.7
O=C(Cc1ccccc1)Oc1ccc(N2C(=O)C3CCCCC3C2=O)cc1 (centres unmarked)	-6.37
Clc1ccc(/C=N/Nc2ncnc3ccccc23)cc1Cl	-1.08
Cc1ccc(Cl)c(OCC(=O)Nc2ccc3c(c2)OCCO3)c1	17.1
O=C(c1nn(-c2ccccc2)c(=O)c2ccccc12)N1CCN(c2ccccn2)CC1	-16.5
CCOc1ccc(C(=O)NC2CC(=O)N(c3ccc4c(c3)OCCO4)C2)cc1 (centres unmarked)	-10.1
NC(=O)c1ccsc1NC(=O)COC(=O)c1ccccc1NCc1ccco1	-2.52
CCN(CC)CCC(=O)Nc1ccc2c(c1)N(C(=O)CN(CC)CC)c1ccccc1CC2.Cl.O	-8.21
CC(=O)OCCN(CCCn1c(-c2ccncc2)nc2ccccc21)c1nc(CN2CCCCC2)cs1	-58.5
CSc1ccccc1NC(=O)c1cc(C(C)C)on1	16.7
CCCCNC(=O)/C=C/c1ccc(S(=O)(=O)Nc2ccc(OC)cc2)cc1	3.52
CN1CCN(NC(=O)c2ccc(S(=O)(=O)N3CC4(C)CC3CC(C)(C)C4)cc2)CC1.Cl (centres unmarked)	-2.07
O=C(CNc1ccc(C(F)(F)F)cc1[N+](=O)[O-])OCC(=O)c1ccccc1	-25.8
COc1ccc2[nH]c(C)c(CCNC(=S)Nc3cccc(C)c3C)c2c1	15.9

SMILES	hERG current change (%, negative = inhibition) at 10uM [%]
COc1ccccc1N1CCN(C2CCCN(C(=O)CCC(=O)N(C)C)C2)CC1 (centres unmarked)	-5.57
COc1ccc(-n2nc(C(=O)NCC(=O)NCCN(C)C)c3ccccc3c2=O)c(OC)c1	15.9
O=C(CSc1ccc2nnc(-c3ccccc3)n2n1)NCc1ccc2c(c1)OCO2	-80.3
CCCc1cc(=O)n2[nH]c(NCc3ccccc3Cl)nc2n1	4.53
Cc1ccc(OCC(=O)NCCCNC(=O)c2ccc(C)nc2)cc1	23.7
COc1ccc(CNCc2cc3c(cc2[N+](=O)[O-])OCO3)cc1.O=C(O)C(=O)O	-40.8
CC(C)C1NC(=S)N(C2CCCCC2)C1=O (centres unmarked)	-18
CC(C)N(C(=S)NC1CC2CCC1C2)c1ccccc1 (centres unmarked)	7.43
COc1ccc(C(C(=O)NCC2CCCO2)N(C(=O)CNC(=O)c2cccs2)c2ccc(NC(C)=O)cc2)cc1OC (centres unmarked)	22.1
OCCN1CCN(c2nc(-c3ccccc3)nc3c2oc2ccccc23)CC1	-6.34
CCOC(=O)N1CCC(=NNc2ccnc3cc(Cl)ccc23)CC1	-32.5
Cc1ccc(C(C(=O)NC2CCCCC2)N(Cc2ccco2)C(=O)Cc2c[nH]c3ccccc23)o1 (centres unmarked)	-40.5
CCc1ccccc1NC(=O)CCS(=O)(=O)c1ccc(OC)cc1	7.48
CC1CCCCN1CC(=O)NCc1ccc2c(c1)OCO2 (centres unmarked)	-18.1
Cc1cc(C(=O)CSc2nnc(-c3ccc(F)cc3)o2)c(C)n1CC1CCCO1 (centres unmarked)	-7.13
CCOc1ccc(NC(=O)c2ccc(CSc3nnnn3C)cc2)cc1	-3.27
O=Cc1c(C(=O)O)n(Cc2ccc(Cl)cc2)c2ccccc12	13.6
O=C1NC[C@H](c2ccccc2)N(CC2CCCCC2)C1=O	4.59
COc1ccc(N2C(=O)CC(NNc3ncc(Cl)cc3Cl)C2=O)cc1 (centres unmarked)	-31.9
Cc1ccc(CSCCNC(=O)/C=C/c2ccccc2Cl)cc1	7.62
O=C1CS/C(=N/N=C/c2c[nH]c3ccccc23)N1	-13.2
Cc1cc(C)c(C#N)c(SCC(=O)c2ccccc2)n1	-7.39
CCCC(=O)n1nc(-c2ccco2)nc1SCc1ccccc1	0.232

SMILES	hERG current change (%, negative = inhibition) at 10uM [%]
Cn1c(=O)[nH]c(=O)c2c1nc(CN1CCN(c3ccccc3F)CC1)n2CC(N)=O	-4.28
CC(C)(C)c1ccc(-c2nnc(SCC(=O)NC3CC3)o2)cc1	2.04
Cn1c(=O)c2c(ncn2Cc2nnc(N)s2)n(C)c1=O	13.6
COc1ccc(S(=O)(=O)N2CCN(C(=O)c3cc(C)on3)CC2)cc1	-4.9
C=CCS(=O)(=O)N1CCCC(N2CCN(c3ccccc3OC)CC2)C1 (centres unmarked)	7.25
Cc1ccc2[nH]c(=O)c(CN(CCO)C(=O)NCc3ccccc3)cc2c1	7.55
COC(=O)c1cc(NC(=O)c2nccnc2C(=O)O)cc(C(=O)OC)c1	13.8
Cc1ccc(OCCN2C(=O)OC(C)(C)C2(C)O)cc1 (centres unmarked)	6.68
COc1ccc(/C=C/C(=O)NC(=S)NNC(=O)c2cccnc2)cc1	9.93
S=C(Nc1ccccc1)c1nc2ccccc2s1	5.99
COc1cc(OC)cc(C(=O)NCCC(c2ccccc2)c2ccccc2)c1	-12.4
COc1ccc(NC(=S)N(CCN2CCOCC2)Cc2cc3cc4c(cc3[nH]c2=O)OCCO4)cc1	-7.45
COc1ccc(C)cc1NC(=O)C(C)N(c1ccc(C)cc1)S(C)(=O)=O (centres unmarked)	-21.7
CCCCCc1nnc(NC(=O)c2ccc(=O)n(C)n2)s1	-4.54
COC(C(=O)Nc1cccc([N+](=O)[O-])c1)c1ccccc1 (centres unmarked)	1.56
Cc1ccc(S(=O)(=O)N2CCN(C(=O)COC(=O)c3c(C)noc3C)CC2)c(C)c1	-18.8
COc1ccccc1N1CCN(C(=O)C2CCN(C(=O)c3ccccc3Cl)CC2)CC1	0.499
Cc1c(C(=O)Oc2cccc3cccnc23)oc2ccccc12	-4.01
CCC(=O)c1c[nH]c(C(=O)N2CCOCC2)c1	29.6
CC(=O)Nc1ccc(S(=O)(=O)NC2CC(=O)N(c3cccc(F)c3)C2)cc1 (centres unmarked)	-3.52
Cc1cccc(-n2c(O)c(C=NCCCN3CCOCC3)c(=O)[nH]c2=O)c1C	6.85
Cc1ccc(NC(=O)C2CCN(S(=O)(=O)c3c(C)nn(C)c3C)CC2)c(Cl)c1	-20
CCOC(=O)N1CCN(C(=O)CSc2nnc(CNC(=O)c3c(F)cccc3Cl)o2)CC1	-2.64

SMILES	hERG current change (%, negative = inhibition) at 10uM [%]
Cc1[nH]nc(-c2ccc(O)cc2O)c1-c1nc2ccccc2s1.O=C(O)C(=O)O	11.5
Cc1ccc(S(=O)(=O)N2CCC(C(=O)C3C(=O)CCCC3=O)CC2)cc1	10.6
CCN(CC)c1ccc(C(=O)OCc2cc(=O)oc3cc(O)ccc23)cc1	1.23
Cc1cc(NC(=O)CSc2nc3sc4c(c3c(=O)n2C)CCCC4)no1	7.47
CCNc1nc(N)nc(Oc2ccc(OCC)nn2)n1	4.35
O=C(O)c1ccc(COc2c(F)c(F)cc(F)c2F)cc1	7.2
CC(C)(C)OC(=O)Cn1c(=O)cnc2ccccc21	10.9
Nc1nnc(SCC(=O)Nc2cccc(S(N)(=O)=O)c2)s1	15.3
O=C(CCSCCC(=O)N1CCCC1)N1CCCC1	23.7
Cc1cccc(CN2CCN(Cc3nc4c(s3)CCCC4)CC2CCO)n1 (centres unmarked)	-28.6
Cc1ccc(-c2nn(CC(N)=O)c(=O)c3ccccc23)cc1S(=O)(=O)N(C)C	-19
Cc1cccc(N(C(=O)c2csnn2)C(C(=O)NC2CCCCC2)c2ccccn2)c1C (centres unmarked)	11.4
O=C(c1ccc2c(c1)OCCO2)N1CCN(Cc2c(F)cccc2Cl)CC1	-10.7
Cc1c(NC(=O)OC(C)C)sc(=S)n1C	-0.457
Cc1ccc(C(=O)N/C(=C\c2ccc(F)cc2)C(=O)NCCN2CCOCC2)cc1	-75.6
C=CCNC(=S)NNC(=O)CC12CC3CC(CC(C3)C1)C2	16.9
COc1cc2c(C(=O)NCc3ccc(C)o3)cn(CC(C)C)c(=O)c2cc1OC	-13.5
CCCN(CCC)CCCNC(=S)Nc1ccc2nc(N3CCCC3)cc(C)c2c1	-60.4
COCc1cc(OC(=O)N(C)C)nc(-c2ccc(C)c(Cl)c2)n1	14.7
Cc1ccccc1-n1c(C)nnc1SCC(=O)N(C)C1CCS(=O)(=O)C1 (centres unmarked)	17.7
